Data taken from the supplement of paper PMC12067093, “Discovery and optimisation of a covalent ligand for TRIM25 and its application to targeted protein ubiquitination” (Chemical Science, 2025).
The full data set covers some 21,000 targets. This sample favours those with the largest changes.

Compound: Cc1cc(ccc1-c1ccccc1)C(=O)N1CCCN(CC1)C(=O)CCl [compound 10]
Experiment: probe-labelled cysteine peptide fold change vs DMSO (competition) (log2 fold change); higher = less target engagement (more negative = stronger competition)
Conditions: 10 µM; THP-1; incubation time: 4 h
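Also: competitive profiling in live THP-1 cells: cysteine peptides tagged with an iodoacetamide desthiobiotin (IA-DTB) probe, intensity after compound treatment relative to DMSO-treated cells.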

Row | Target | probe-labelled cysteine peptide fold change
1 | HSPA4_P34932_34_CTPACISFGPK (UniProt P34932) | 0.0694
2 | KIF21A_Q7Z4S6_1603_DWVCALGVVPDHPVLLSGCR (UniProt Q7Z4S6) | 0.1
3 | INPP5D_Q92835_385_EGFCQLLQQMK (UniProt Q92835) | -0.236
4 | HNRNPLL_Q8WVV9_505_TLSGLLEWECK (UniProt Q8WVV9) | -0.0676
5 | IGF2R_P11717_538_GCPEDAAVCAVDK (UniProt P11717) | -0.117
6 | KARS_Q15046_427_KILDDICVAK (UniProt Q15046) | -0.516
7 | HSPBP1_Q9NZL4_310_ECREPELGLEELLR (UniProt Q9NZL4) | -0.105
8 | ILVBL_A1L0T0_608_VLHDAQQQCR (UniProt A1L0T0) | 0.0577
9 | IMPDH2_P12268_140_HGFCGIPITDTGR (UniProt P12268) | 0.185
10 | KHNYN_O15037_221_SSALLGAQCQGVR (UniProt O15037) | -0.233
11 | LARS_Q9P2J5_1053_IREDCCPGKPLNVFR (UniProt Q9P2J5) | -0.201
12 | ITGB2_P05107_590_VECSGR (UniProt P05107) | 0.585
13 | KIAA0391_O15091_469+493_QASCFFADDISEDDPFLLYATLHSGNHCR (UniProt O15091) | 0.0905
14 | IQGAP2_Q13576_1183_EACNVPEPEEK (UniProt Q13576) | 0.136
15 | HPS1_Q92902_180_LIHPQLCELCIEALER (UniProt Q92902) | 0.00119
16 | LASP1_Q14847_5_MNPNCAR (UniProt Q14847) | 0.0494
17 | KBTBD11_O94819_384_ARPSDQVFCYNPATDSWSAVRPLR (UniProt O94819) | 0.0739
18 | KIFC1_Q9BW19_663_VNQCVIGTAQANR (UniProt Q9BW19) | -0.000363
19 | ILKAP_Q9H0C8_325_FILLACDGLFK (UniProt Q9H0C8) | 0.00748

Row | Target | probe-labelled cysteine peptide fold change
20 | KDM3B_Q7LBC6_72_AMSGAVPQDLAIFVEFDGCNWK (UniProt Q7LBC6) | 0.0802
21 | KAT8_Q9H7Z6_416_GQHVICVTPK (UniProt Q9H7Z6) | 0.233
22 | IDNK_Q5T6J7_83_VVLACSALK (UniProt Q5T6J7) | -0.0499
23 | IDH2_P48735_402_VCVETVESGAMTK (UniProt P48735) | 0.209
24 | INTS13_Q9NVM9_120_ADPECCSILHGLVAAVETLCK (UniProt Q9NVM9) | -0.109
25 | KLHDC4_Q8TBB5_373_EEPEGGSRPACGGAGTQGPVQLVK (UniProt Q8TBB5) | -0.0404
26 | HTATIP2_Q9BUP3_91_NVNQEVVDFEKLDDYASAFQGHDVGFCCLGTTR (UniProt Q9BUP3) | -0.0888
27 | HMOX2_P30519_282_GALEGSSCPFR (UniProt P30519) | -2.29
28 | IFI35_P80217_107_EHTINMEECR (UniProt P80217) | 0.0968
29 | HNRNPA1_P09651_43_SHFEQWGTLTDCVVMRDPNTK (UniProt P09651) | -0.0523
30 | ITGB2_P05107_497_SSQELEGSCR (UniProt P05107) | -0.0844
31 | IARS2_Q9NSE4_414_GTGLVHTAPAHGMEDYGVASQHNLPMDCLVDEDGVFTDVAGPELQNK (UniProt Q9NSE4) | -0.227
32 | INTS3_Q68E01_740_LLCHLTPSIYTEFPDETLR (UniProt Q68E01) | 0.306
33 | ITGB2_P05107_582_TTEGCLNPR (UniProt P05107) | 0.0502
34 | IPO4_Q8TEX9_708_LLECPHLNVR (UniProt Q8TEX9) | -0.159
35 | HSPA9_P38646_608_VEAVNMAEGIIHDTETKMEEFKDQLPADECNK (UniProt P38646) | -0.551
36 | IMPA2_O14732_90+107_CVLTHSPTWIIDPIDGTCNFVHR (UniProt O14732) | -0.0214
37 | ITGB7_P26010_91_GCPLEELEEPR (UniProt P26010) | -0.127
38 | KNTC1_P50748_2198_HCGKPVPPDTAPCEILK (UniProt P50748) | -0.336

Same assay, conditions: 50 µM; THP-1; incubation time: 4 h

Row | Target | probe-labelled cysteine peptide fold change
39 | HSPA4_P34932_34_CTPACISFGPK (UniProt P34932) | -0.11
40 | KIF21A_Q7Z4S6_1603_DWVCALGVVPDHPVLLSGCR (UniProt Q7Z4S6) | -0.243
41 | INPP5D_Q92835_385_EGFCQLLQQMK (UniProt Q92835) | 0.0285
42 | HNRNPLL_Q8WVV9_505_TLSGLLEWECK (UniProt Q8WVV9) | 0.0901
43 | IGF2R_P11717_538_GCPEDAAVCAVDK (UniProt P11717) | 0.048
44 | KARS_Q15046_427_KILDDICVAK (UniProt Q15046) | -1.13
45 | HSPBP1_Q9NZL4_310_ECREPELGLEELLR (UniProt Q9NZL4) | 0.0852
46 | ILVBL_A1L0T0_608_VLHDAQQQCR (UniProt A1L0T0) | 0.154
47 | IMPDH2_P12268_140_HGFCGIPITDTGR (UniProt P12268) | 0.0285
48 | KHNYN_O15037_221_SSALLGAQCQGVR (UniProt O15037) | -0.449
49 | LARS_Q9P2J5_1053_IREDCCPGKPLNVFR (UniProt Q9P2J5) | -0.404
50 | ITGB2_P05107_590_VECSGR (UniProt P05107) | 0.264
51 | KIAA0391_O15091_469+493_QASCFFADDISEDDPFLLYATLHSGNHCR (UniProt O15091) | -0.0707
52 | IQGAP2_Q13576_1183_EACNVPEPEEK (UniProt Q13576) | 0.212
53 | HPS1_Q92902_180_LIHPQLCELCIEALER (UniProt Q92902) | -0.104
54 | LASP1_Q14847_5_MNPNCAR (UniProt Q14847) | 0.246
55 | KBTBD11_O94819_384_ARPSDQVFCYNPATDSWSAVRPLR (UniProt O94819) | -0.0268
56 | KIFC1_Q9BW19_663_VNQCVIGTAQANR (UniProt Q9BW19) | 0.211
57 | ILKAP_Q9H0C8_325_FILLACDGLFK (UniProt Q9H0C8) | -0.207

Row | Target | probe-labelled cysteine peptide fold change
58 | KDM3B_Q7LBC6_72_AMSGAVPQDLAIFVEFDGCNWK (UniProt Q7LBC6) | 0.334
59 | KAT8_Q9H7Z6_416_GQHVICVTPK (UniProt Q9H7Z6) | 0.0955
60 | IDNK_Q5T6J7_83_VVLACSALK (UniProt Q5T6J7) | 0.0798
61 | IDH2_P48735_402_VCVETVESGAMTK (UniProt P48735) | 0.00225
62 | INTS13_Q9NVM9_120_ADPECCSILHGLVAAVETLCK (UniProt Q9NVM9) | -0.319
63 | KLHDC4_Q8TBB5_373_EEPEGGSRPACGGAGTQGPVQLVK (UniProt Q8TBB5) | -0.104
64 | HTATIP2_Q9BUP3_91_NVNQEVVDFEKLDDYASAFQGHDVGFCCLGTTR (UniProt Q9BUP3) | -0.569
65 | HMOX2_P30519_282_GALEGSSCPFR (UniProt P30519) | -1.83
66 | IFI35_P80217_107_EHTINMEECR (UniProt P80217) | 0.0397
67 | HNRNPA1_P09651_43_SHFEQWGTLTDCVVMRDPNTK (UniProt P09651) | -0.0445
68 | ITGB2_P05107_497_SSQELEGSCR (UniProt P05107) | -0.0127
69 | IARS2_Q9NSE4_414_GTGLVHTAPAHGMEDYGVASQHNLPMDCLVDEDGVFTDVAGPELQNK (UniProt Q9NSE4) | -0.124
70 | INTS3_Q68E01_740_LLCHLTPSIYTEFPDETLR (UniProt Q68E01) | 0.402
71 | ITGB2_P05107_582_TTEGCLNPR (UniProt P05107) | -0.0473
72 | IPO4_Q8TEX9_708_LLECPHLNVR (UniProt Q8TEX9) | -1.14
73 | HSPA9_P38646_608_VEAVNMAEGIIHDTETKMEEFKDQLPADECNK (UniProt P38646) | -1.79
74 | IMPA2_O14732_90+107_CVLTHSPTWIIDPIDGTCNFVHR (UniProt O14732) | -0.184
75 | ITGB7_P26010_91_GCPLEELEEPR (UniProt P26010) | 0.134
76 | KNTC1_P50748_2198_HCGKPVPPDTAPCEILK (UniProt P50748) | -0.836
